# Laboratory results from PubChem BioAssay (NCI).
# Several values for one entry are separate records, joined by “and”; a condition that tells them apart may be missing. Equal values may be shown once.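 All cell lines were grown in 96-well plates and treated with compound for 48 hours. GI50 = concentration required for 50% inhibition of growth. Definition used: TGI = concentration required for complete inhibition of growth.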
# Tested on: NCI-H322M lung
# Experiment: DTP human tumour cell line panel, 48 h
SMILES,GI50,TGI
O=C(Nc1ccccc1)Nc1cccc(-n2cc(-c3ccncc3)c(-c3ccc(O)c(Cl)c3)n2)c1,4.7 µM,46.2 µM
O=C(O)C1NCCc2c1[nH]c1ccccc21 (configuration not stated),–,> 100 µM
[O-][N+](CCO)(CCO)c1ncnc2nc[nH]c12,–,> 100 µM
OCCOCn1cc(Cn2ncc3c(SCc4ccccc4)ncnc32)nn1,–,> 100 µM
COc1ccc(-c2cnc3ccnn3c2-c2cc(OC)c(OC)c(OC)c2)cc1,6.23 µM,> 100 µM
C=CC1ON(C)CCc2cc(OC)c(OC)cc21 (configuration not stated),–,> 100 µM
Cc1n[nH]c(=S)n1/N=C/c1ccc(F)c(Oc2ccccc2)c1,54.7 µM,> 100 µM
NC1CC(=O)c2c(Cl)sc(Cl)c21 (configuration not stated),–,23.8 µM
CCOP(=O)(OCC)C1CC(O)CN1OC(=O)C(C)(C)C (configuration not stated),–,> 100 µM
Cn1cccc1-c1cc(-c2cccs2)[nH]c(=O)c1C#N,> 100 µM,> 100 µM
CCOC(=O)C1CCn2c(nc3c2c(=O)n(C)c(=O)n3C)S1 (configuration not stated),–,> 100 µM
C[C@]12CCC(=O)C=C1CC[C@@H]1[C@@H]2CC[C@]2(C)C(=O)[C@H](n3ccnc3)C[C@@H]12,–,> 100 µM
CCOc1ccccc1N=Nc1c(-c2ccccc2)nn(C(=O)CC(=O)Nc2cccc(Cl)c2)c1-c1ccccc1,–,> 100 µM
N=C(N)c1ccc(-c2ccc(-c3ccc(Cl)cc3)o2)o1,1.67 µM,3.23 µM
COC(=O)C(C(=O)C(=O)NC1=C(Cl)C(=O)c2ccccc2C1=O)c1csc(-n2nc(-c3ccccc3)cc2-c2ccccc2)n1 (configuration not stated),–,> 100 µM
O=CN1CCN(C(=O)c2cc(Cl)cc(Cl)c2)C1=S,–,35.3 µM
COc1ccc(-c2c(C#N)c(-c3ccc(C)cc3)n(NS(=O)(=O)c3ccccc3)c(=O)c2C#N)cc1,–,> 100 µM
Cc1ccc2c(c1)C(=O)C(Cc1ccccc1C(=O)O)C2 (configuration not stated),–,> 100 µM
O=C1N=C(c2ccccc2)OC1C(=O)c1ccccc1 (configuration not stated),–,> 100 µM
Cc1c(C(=O)CC(=O)C(=O)Nc2ccc(Cl)c(Cl)c2)[n+](=O)c2ccccc2n1[O-],–,56.3 µM
O=c1[nH]c(-c2cccc(F)c2)nc2ccccc12,–,> 69.5 µM
c1ccc(C2C3=C(CCCC3)Nc3nc4cc5ccccc5cc4n32)cc1 (configuration not stated),–,> 100 µM

SMILES,GI50,TGI
Nc1ncnc(NC2C=C(CO)C(O)C2O)c1[N+](=O)[O-] (configuration not stated),–,> 100 µM
C=C(C)CC1=C(OCC)C(OC)(OCC)C1=O (configuration not stated),–,> 100 µM
CN(CCCNC(=O)c1cn(C)c2c1ccc1cc(Cl)c(Cl)cc12)CCCNC(=O)c1cn(C)c2c1ccc1cc(Cl)c(Cl)cc12,–,28 µM
c1cc(OCCN2CCCCCC2)ccc1CNc1ccc2nc(CCC3CCCCC3)[nH]c2c1,2.62 µM,7.82 µM
O=C1c2ccccc2-c2nc3ccc(O)cc3n21,–,> 100 µM
CCOC(=O)c1c(-c2ccccc2)[n+](=O)c2ccc(Cl)cc2n1[O-],7.52 µM,27.1 µM
CC(=O)OCCCCn1cnc2nc(Nc3ccccc3)nc(Cl)c21,–,> 100 µM
COC1O[C@@H]2CCN3C(=O)[C@@H](OC(=O)c4ccc([N+](=O)[O-])cc4)[C@H]1C23 (some centres not stated),–,> 100 µM
CCOC(=O)/C(=C\NCC(OCC)OCC)c1nc2ccccc2[nH]1,–,> 100 µM
CCOC(=O)c1c(C)nc2ccc(Cl)cc2c1-c1ccccc1,25.2 µM,91.6 µM
O=C(Nc1n[nH]c2nc(-c3ccco3)ccc12)C1CC1,> 25 µM,> 25 µM
COC(=O)/C(C#N)=C1\CCC(O)N1C (configuration not stated),–,> 100 µM
COC(=O)C1C(C)N1C (configuration not stated),–,> 100 µM
Cc1c2c(nn1C(=O)c1nn(-c3ccc(Cl)cc3)cc1O)-c1ccccc1CC2,0.053 µM,> 100 µM
NCC#CCNCCCN1CC1,–,> 100 µM
C=CCNC(=S)N1c2ccccc2NC(=O)CC1C (configuration not stated),–,> 100 µM
OCC1NCC(O)C(O)C1O (configuration not stated),–,> 100 µM
CCOC(=O)C(Cc1c2ccccc2cc2ccccc12)(NC(C)=O)C(=O)OCC,–,> 100 µM
O=C(C#CP(=O)(O)c1ccccc1)c1ccccc1,–,> 100 µM
O=C1/C(=C\C(Cl)=C/c2ccc([N+](=O)[O-])cc2)SC(=S)N1CCc1ccc(O)cc1,1.43 µM,3.03 µM
COc1ccc(/C=C2\CN(Cc3cn(CCCNc4ccnc5cc(Cl)ccc45)nn3)C/C(=C\c3ccc(OC)c(OC)c3)C2=O)cc1OC,1.18 µM,2.74 µM
COc1ccc(-c2cc(=O)c3c(OC)c(OC)c(OC)c(OC)c3o2)cc1OC,–,> 100 µM

SMILES,GI50,TGI
CC1(C)CC(=O)C2=C(C1)NC(SSC1=C(C#N)C(c3ccc(F)cc3)C3=C(CC(C)(C)CC3=O)N1)=C(C#N)C2c1ccc(F)cc1 (configuration not stated),48.8 µg/mL,> 150 µg/mL
CN=C1Nc2ccc(Cl)cc2C(c2ccccc2)=NN1C,–,> 100 µM
COc1ccc(N(CC(=O)NCCC[Te]c2ccccc2)C(=O)CCSC2=C(C)C(=O)c3ccccc3C2=O)cc1,2.34 µM,7.98 µM
COC(=O)N/N=C(/CCN1CCCC1)CC(c1ccccc1)c1c(O)c2ccccc2oc1=O (configuration not stated),–,> 100 µM
Cc1ccc(OCC2OC(C#N)C(Oc3ccc(C)cc3)C2Oc2ccc(C)cc2)cc1 (configuration not stated),–,> 100 µM
ClC1CCC2OOC1O2 (configuration not stated),–,> 100 µM
C=C1C[C@@H](O)[C@@H](Br)C(C)(C)[C@]12CCC(C)(Cl)C(Br)C2 (some centres not stated),–,> 100 µM
C=C1C(=O)O[C@@H]2C(=O)[C@@H](C)[C@@H]3C=CC(=O)[C@@]3(C)[C@@H](OC(=O)/C(C)=C\C)[C@H]12,–,26.6 µM
COC(=O)C1(C(=O)OC)CC2c3c(c4ccccc4n3C)CC(C1=O)N2Cc1ccccc1 (configuration not stated),–,> 100 µM
CCOC(=O)c1ccc(N(CCOS(C)(=O)=O)CCOS(C)(=O)=O)cc1C,> 100 µM,> 100 µM
Cc1ccc(S(=O)(=O)/N=c2\ssc(Nc3ccccc3)c2Cl)cc1,0.005 µM,12.1 µM
O=[n+]1c2c(n([O-])c3ccccc31)-c1cccc3cccc-2c13,–,> 100 µM
COC(=O)[C@@H]1C[C@H]([Se]c2ccccc2)CN1S(=O)(=O)c1ccc(C)cc1,–,> 100 µM
CCCCCC(O)[C@H]1C(=O)C[C@@H](O[Si](C)(C)C(C)(C)C)[C@@H]1/C=C/CCOCc1ccccc1 (some centres not stated),–,46.1 µM
CC(=O)OC1CC(O)CC2=CCC3C4CCC(C(C)(O)C(O)CC5COC(=O)C5C)C4(C)CCC3C21C (configuration not stated),–,> 25 µM
O=[N+]([O-])c1cc(CCl)ccc1CCl,–,3.06 µM
NC(CNO)C(=O)O (configuration not stated),–,> 100 µM
CC#CS(=O)(=O)c1ccccc1,–,34.9 µM
COc1ccc2c(c1)CCc1c(-c3noc4c3CCc3cc(OC)ccc3-4)noc1-2,–,> 100 µM
O=C1C(=O)N(C(=O)c2ccc(Cl)c(Cl)c2)c2ccc(Cl)cc21,–,> 100 µM
COC(=O)C(=O)C(C(=O)C(=O)Nc1ccc(Cl)cc1C)c1nc2ccc(C(=O)c3ccccc3)cc2[nH]c1=O (configuration not stated),–,> 100 µM
CNNCc1ccc(C(=O)NC(C)C)cc1,–,> 500 µM

SMILES,GI50,TGI
CC(C)(C)[Si](C)(C)OCCCCC1CC2(S(=O)(=O)C3=CC=C=C=C3)ON1CC2S(=O)(=O)c1ccccc1 (configuration not stated),–,> 100 µM
O=S(=O)(/N=C(\NO)Nc1ccc(Cl)cc1)c1ccc(S(=O)(=O)c2ccccc2)s1,–,52.8 µM
CC(=O)N(C)c1ccc2c(ccc[n+]2[O-])c1[N+](=O)[O-],–,> 100 µM
CC1=C2C(=O)OCC23C=COC3(C)O1 (configuration not stated),–,> 100 µM
O=C1C(=O)c2ccccc2-c2ccccc21,1.68 µM,3.11 µM
CC(C)[Si](OC1=C(C(=O)Nc2ccccc2Cl)CCCCC1)(C(C)C)C(C)C,–,> 100 µM
CC(=O)CCNc1ccc(-c2cc(-c3ccc(N(C)C)cc3)nc3ccc4ccccc4c23)cc1,–,> 100 µM
Cc1cc(N2CCCCCC2)nc(NC2CCCC(Nc3ccnc4cc(Cl)ccc34)C2)n1 (configuration not stated),1.62 µM,3.1 µM
CCC(C)OC(=O)C1C2CCC(O2)C1C(=O)O (configuration not stated),–,> 100 µM
N#CC(c1ccccc1)N1CCCN(C(C#N)c2ccccc2)C1c1ccccc1O (configuration not stated),–,> 100 µM
O=C1CCCC2=C(N1)C(=O)C=CC2=O,–,> 84.3 µM
CCOC(=O)n1[nH]c(=O)n(-c2ccccc2)c1=O,–,> 100 µM
CC(=O)O[C@H]1C(=O)O[C@@H]2C[C@H]3C(C)=CC(=O)[C@@H](O)[C@]3(C)[C@H]3[C@@]4(O)OC[C@]32[C@@H]1[C@@H](C)[C@H]4O,0.649 µM and 0.248 µM,6.08 µM and 1.36 µM
O=C(O)c1ccc(O)c(N=Nc2cc(S(=O)(=O)O)c3ccccc3c2O)c1,–,> 100 µM
O=c1cc(-c2ccc(Cl)cc2)[nH]c2ncccc12,–,> 100 µM
COC(=O)C(=O)c1c2ccccc2n2ccc3c4ccccc4[nH]c3c12,–,> 10 µM
C#CCOCn1cnc2c(=S)nc[nH]c21,–,> 100 µM
COc1ccc(-c2nn(-c3cccc(NC(=O)Nc4ccc(Cl)c(C(F)(F)F)c4)c3)cc2-c2ccncc2)cc1Cl,3.86 µM,> 100 µM
C#CCN=C(N/N=C/c1ccc([N+](=O)[O-])o1)NS(=O)(=O)c1cc(C)c(Cl)cc1SCC(N)=O,26.9 µM,64.8 µM
COC(=O)C1=NN2c3ccccc3C(=O)OCCC2(C)C1 (configuration not stated),–,> 100 µM
